Experimental data taken from a compilation of properties of binary mixtures (doi:10.1016/j.molliq.2020.113742).
Some of these densities may be calculated back from excess volumes.

Assay: xn = mol fraction of the nth substance listed
Details: 101.3 kPa

CCCC[N+]1(C)CCCC1.F[P-](F)(F)(F)(F)F + CCCC[n+]1cccc(C)c1.F[P-](F)(F)(F)(F)F
mass density [kg/m3]
Details	x2 = 0.2	x2 = 0.3	x2 = 0.4	x2 = 0.5	x2 = 0.6	x2 = 0.7	x2 = 0.8	x2 = 0.9
303.13 K	–	–	1322	–	–	–	–	–
308.15 K	–	–	–	1320	1322	–	–	–
313.15 K	–	1311	–	1316	1318	1321	–	–
318.15 K	–	1307	–	–	1315	1317	1320	–
323.15 K	–	1304	1306	1308	1311	1313	1316	1318
328.15 K	1297	1300	–	1304	1307	–	1312	–
333.15 K	1294	1296	1299	1301	–	1306	1308	1310
338.15 K	1290	1292	1295	–	1299	1302	1304	1307
343.15 K	–	1289	–	1293	–	1298	1300	1302
348.15 K	1283	1285	1287	1289	–	1294	1296	1299
353.15 K	1279	1281	–	1286	1288	1290	1293	1295
358.15 K	–	1278	–	1282	1284	1287	1289	1291
363.15 K	1272	1274	1276	–	–	1283	1285	1287

CCCC[N+]1(C)CCCCC1.F[P-](F)(F)(F)(F)F + CCCC[n+]1cccc(C)c1.F[P-](F)(F)(F)(F)F
mass density [kg/m3]
Details	x1 = 0.1	x1 = 0.2	x1 = 0.3	x1 = 0.4	x1 = 0.5	x1 = 0.6	x1 = 0.7	x1 = 0.8
298.15 K	–	–	–	–	–	1315	–	–
303.15 K	–	–	–	–	1315	1311	–	–
308.15 K	–	–	–	1315	1311	1307	1303	–
313.15 K	–	–	–	1311	–	1303	1299	–
318.15 K	–	–	–	1308	–	1300	1296	1292
323.15 K	1317	1312	1308	1304	–	1296	1292	1288
328.15 K	–	1308	1304	1300	1296	1292	1288	1285
333.15 K	1308	1305	1300	1296	1292	1289	–	1281
338.15 K	1305	1300	1296	1293	1289	1285	–	1277
343.15 K	–	–	1293	1289	1285	1281	1278	–
348.15 K	1297	–	–	1285	1282	1278	1274	1270
353.15 K	1293	1289	–	1281	1278	1274	1270	1267
358.15 K	1289	–	–	1277	1274	1270	1267	–
363.15 K	1286	1282	–	1274	1270	1267	1263	1260
